# Experimental data taken from the supplement of paper PMC10338343.
# ± gives the standard deviation. Only a part is listed here, and it is no random draw.
# Tested on: MIWI (PIWIL1) piRISC loaded with L1MC piRNA (30 nt)
# Assay: pre-steady-state target cleavage rate (min^-1); MIWI and MILI are mouse PIWI proteins and EfPiwi is from a freshwater sponge; tags in brackets are library labels; higher = faster piRNA-guided slicing of the target
# Details: guide: L1MC piRNA 5'p-UAACUAAAUACUAUGCAAGCUGUAGGUCCU
# Outline: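 Active affinity-purified piRISC carrying one synthetic guide (1 nM) was mixed with a transcribed, DNA-blocked target RNA library […] in HEPES–potassium acetate buffer at 33 °C for 0–8 or 0–960 min, with or without 500 nM GTSF1 partner protein. Uncleaved targets were then sequenced and normalised to depth and to weakly complementary targets. Three trials were pooled, and k3 was capped at 0.0001 min^-1. A burst-and-steady-state fit was applied to obtain the pre-steady-state cleavage rate.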
# [1] = auxiliary factor: 500 nM mouse GTSF1
# [2] = auxiliary factor: none (no GTSF1)
# 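Note: 1 nM active piRISC with 0.1 nM target library at 33 °C single turnover.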
Sequence,pre-steady-state target cleavage rate [1],pre-steady-state target cleavage rate [2]
UCCUGGAUGUGCUUGCAUAGUAUAUAGUUA,0.0692 ± 0.0098,0.0151 ± 0.0036
UCCUGGAUCAGCGUGCAUAGUAUUUAGUUA,1.09 ± 0.063,0.0183 ± 0.0047
UCCUCCUACUCCUUGCAUAGUAUUUAGUUA,1.27 ± 0.038,0.0448 ± 0.0077
UCCUGGUACAGCUAUGCAUAGUAUUUAGUUA,0.795 ± 0.037,0.0185 ± 0.0039
UCGACCUACAGCUUUGCAUAGUAUUUAGUUA,1.4 ± 0.061,0.0371 ± 0.0078
UCCUGGAUCAGCUUGCAUAGUAUUAAGUAA,0.449 ± 0.053,0.0105 ± 0.0037
UCCUGGAUGAGCUUGCUUAGUAUUUAGUUA,0.61 ± 0.037,0.0307 ± 0.0075
UCCUGCUUCAGCUUGCAAAGUAUUUAGUUA,0.916 ± 0.041,0.0348 ± 0.0099
UCGACGUACAGCUUGCAUAGUAUUUUCAAA,0.424 ± 0.06,0.00288 ± 0.0027
UCCUGGAUGAGCUAUGCAUAGUAUUUAGUUA,0.636 ± 0.033,0.0145 ± 0.0038
UCCACCUACAGCUUGCAUAGUACUUAGUUA,0.641 ± 0.05,0.0364 ± 0.0054
UCGAGCUACAGCUUGGAUAGUAUUUAGUUA,1.11 ± 0.086,0.0477 ± 0.0076
UCCUGGAUCAGCAUGCAUAGUAUUUAGUUA,1.13 ± 0.067,0.0154 ± 0.004
AGGACCAUGAGCUUGCAUAGUAUUUAGUUA,1.14 ± 0.057,0.0664 ± 0.012
UCCUGGUUCAGCUUGCUUAGUAUUUAGUUA,1.05 ± 0.065,0.0378 ± 0.0086
UCCUGCUACGAGCUUGCAUAGUAUUUAGUUA,0.717 ± 0.073,0.0315 ± 0.0066
UCCUGCUUGUGCUUGCAUAGUAUUUAGUAA,0.133 ± 0.019,0.0144 ± 0.0036
UCCUGGAACAGCUUGCAUAGUAUUUAGCUA,0.0325 ± 0.013,0.00561 ± 0.003
UCCUGGAUGAGCUUGUCAUAGUAUUUAGUUA,0.0704 ± 0.009,0.0036 ± 0.0025
AGGACCUACAGCUUCCAUAGUAUUUAGUAA,0.113 ± 0.024,0.0038 ± 0.0023
UCCUGGUACAGCUUGCAUAGUAUUAUGUUA,0.209 ± 0.027,0.0187 ± 0.0041
UGCACCUACAGCUUGCAUAGUAUUAAGUUA,0.743 ± 0.069,0.0331 ± 0.008
UCCACCUACAGCUUGCAUAGUGAUUUAGUUA,0.106 ± 0.02,0.00454 ± 0.0024
UGGACCUACAGCUUGCCUAGUAUUUAGUUA,1.16 ± 0.069,0.0353 ± 0.006
UGGACCAACAGCUUGCAUAGUAUUUACAAA,0.235 ± 0.026,0.00615 ± 0.0021
AGGACCUAGAGCUUGCAUAGUAUUUAGUAA,0.876 ± 0.056,0.089 ± 0.025
UCCUGGUACGGCUUGCAUAGUAUUUAGUUA,0.533 ± 0.048,0.0699 ± 0.013
UGGACCUACAGCUUGCAUAGUAUUUAGUAUA,1 ± 0.078,0.039 ± 0.0081

Sequence,pre-steady-state target cleavage rate [1],pre-steady-state target cleavage rate [2]
UCCUGGAACAGCUAGCAUAGUAUUUAGAUA,0.31 ± 0.035,0.00739 ± 0.0034
UCCUCCUACAGCUUGCAUAGUAUUUAGUCUA,0.231 ± 0.044,0.0115 ± 0.0035
UCCUGGAUGUCCUUGCAAGUAUUUAGUUA,0.00413 ± 0.0034,0.00275 ± 0.0026
UCCUGGAUGAGCUUGCAUAGUAUUAAGAUA,0.0969 ± 0.027,0.00447 ± 0.0029
UCCUGCUACUGCUUGCAUAGUAUUUACUUA,0.201 ± 0.022,0.0237 ± 0.0035
UCCUCCUACAGGUUGCAUACUAUUUAGUUA,0.273 ± 0.025,0.0155 ± 0.0031
UCCUGGAACAGGUUGCAAAGUAUUUAGUUA,0.969 ± 0.055,0.0125 ± 0.003
UCGACCUACAGCUUGCAUAGUUUUUAGAAA,0.287 ± 0.035,0.00673 ± 0.0029
UCCUGCUACAGCUUGCAUACUAUUUACUUA,0.157 ± 0.022,0.0211 ± 0.0049
UGCACCUACAGCUUGCAUAGUAUUUACUUA,0.46 ± 0.056,0.0724 ± 0.017
UCCUGCUAUAGCUUGCAUAGUAUUUAGUUA,0.631 ± 0.035,0.0386 ± 0.007
UCCUCCUACAGCAUGCAUAGUAUUUACUUA,0.409 ± 0.039,0.0142 ± 0.0025
UCCUCCAUCAGCUUGCAUAGUAUUUACAAA,0.204 ± 0.033,0.00387 ± 0.0023
UCCUGGUACAGCUUGCAUAGUAUUUUGAUA,0.166 ± 0.031,0.00994 ± 0.0034
UCCUCCUAGUCCUUGCAUAGUAUUUAGUUA,0.868 ± 0.041,0.0152 ± 0.0035
UCCUGGAUCAGCUUGCAUAGUAUUUAAUUA,0.178 ± 0.02,0.018 ± 0.0062
UGGACCUACUCCUUGCAUAGUAUUUACAAA,0.0914 ± 0.018,0.00535 ± 0.0019
UCCUGGAUGACUUGCAUAGUAUUUAGUUA,0.412 ± 0.03,0.0206 ± 0.0053
UCCUGGAUGAGCUUGCAUAGUAUUUUGAAA,0.174 ± 0.033,0.00589 ± 0.0026
AGGAGCUACAGCUUGCAUAGUAUUUACAAA,0.34 ± 0.054,0.00933 ± 0.0028
AGGACCUUGAGCUUGCAUAGUAUUUAGAAA,0.335 ± 0.04,0.0105 ± 0.0044
UCGACCUACAGCUUGCAUACUAUAUAGUUA,0.194 ± 0.017,0.0131 ± 0.003
UGGACCUAGAGCUUGCAUAGUAUUUACUUA,0.192 ± 0.027,0.025 ± 0.004
UCCUGGAUCAGGUUGCUUAGUAUUUAGUUA,0.194 ± 0.021,0.00489 ± 0.0024
UCCUCCUACAGCUUGCAUAGUAUUUAGCUA,0.342 ± 0.1,0.00701 ± 0.0032
UCCUGGAACUGCUUGCAUAGAAUUUAGUUA,0.192 ± 0.021,0.00872 ± 0.0032
UGGAGGAACAGCUUGCAUAGUAUUUAGUUA,1.26 ± 0.049,0.0795 ± 0.015
